Data taken from EP4431529A1 (Sunshine Guojian Pharmaceutical (Shanghai) Co., Ltd., dated 2024).

T1: VEGF165 (UniProt P15692-4 27-191)
T1 construct: treated as one molecule; also called VEGF protein; VGEF
T1 sequence (looked up): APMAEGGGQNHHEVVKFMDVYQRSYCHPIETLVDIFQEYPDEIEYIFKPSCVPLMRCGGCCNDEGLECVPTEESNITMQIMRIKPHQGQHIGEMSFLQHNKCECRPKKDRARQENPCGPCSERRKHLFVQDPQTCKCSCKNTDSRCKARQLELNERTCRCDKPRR

T2: IL-17A protein (human, UniProt Q16552 24-155)
T2 construct: Embodiments 3 and 4 say only 'IL-17A'; Treated as one molecule; also called human IL-17A
T2 sequence (looked up): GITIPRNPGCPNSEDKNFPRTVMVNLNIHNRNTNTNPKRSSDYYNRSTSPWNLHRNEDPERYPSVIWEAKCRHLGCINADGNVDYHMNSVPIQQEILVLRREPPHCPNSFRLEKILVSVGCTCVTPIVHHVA

B1: anti-IL-17/VEGF bifunctional fusion protein 17V01 (other)
heavy: EVQLVESGGGLVQPGGSLRLSCAASGFTFSSFDMSWGRQAPGKRLEWVAFMSSGGSTYYPDSVKGRFTISRDNSKNTLYLQMNSLRAEDTAVYYCARGERYGSYWGQGTLVTVSSASTKGPSVFPLAPSSKSTSGGTAALGCLVKDYFPEPVTVSWNSGALTSGVHTFPAVLQSSGLYSLSSVVTVPSSSLGTQTYICNVNHKPSNTKVDKKV[skipping human IgG1 Fc]GGGGSGGGGSDTGRPFVEMYSEIPEIIHMTEGRELVIPCRVTSPNITVTLKKFPLDTLIPDGKRIIWDSRKGFIISNATYKEIGLLTCEATVNGHLYKTNYLTHRQTN
light: DIQMTQSPSSLSASVGDRVTITCKASDHINNWLAWYQQKPGKAPKLLISGATSLETGVPSRFSGSGSGTDYTLTISSLQPEDFATYYCQQYWSTPFTFGSGTKLEIKRTVAAPSVFIFPPSDEQLKSGTASVVCLLNNFYPREAKVQWKVDNALQSGNSQESVTEQDSKDSTYSLSSTLTLSKADYEKHKVYACEVTHQGLSSPVTKSFNRGEC
B2: anti-IL-17/VEGF bifunctional fusion protein 17V05 (other)
heavy: EVQLVESGGGLVQPGGSLRLSCAASGFTFSSFDMSWGRQAPGKRLEWVAFMSSGGSTYYPDSVKGRFTISRDNSKNTLYLQMNSLRAEDTAVYYCARGERYGSYWGQGTLVTVSSASTKGPSVFPLAPSSKSTSGGTAALGCLVKDYFPEPVTVSWNSGALTSGVHTFPAVLQSSGLYSLSSVVTVPSSSLGTQTYICNVNHKPSNTKVDKKV[skipping human IgG1 Fc]GGGGSGGGGSDTGRPFVEAYSEIPEIIHMTEGRELVIPCRVTSPNITVTLKKFPLDTLIPDGKRIIWDSRKGFIISNATYKEIGLLTCEATVNGHLYKTNYLTHRQTN
light: DIQMTQSPSSLSASVGDRVTITCKASDHINNWLAWYQQKPGKAPKLLISGATSLETGVPSRFSGSGSGTDYTLTISSLQPEDFATYYCQQYWSTPFTFGSGTKLEIKRTVAAPSVFIFPPSDEQLKSGTASVVCLLNNFYPREAKVQWKVDNALQSGNSQESVTEQDSKDSTYSLSSTLTLSKADYEKHKVYACEVTHQGLSSPVTKSFNRGEC
B3: anti-IL-17/VEGF bifunctional fusion protein 17V06 (other)
heavy: EVQLVESGGGLVQPGGSLRLSCAASGFTFSSFDMSWGRQAPGKRLEWVAFMSSGGSTYYPDSVKGRFTISRDNSKNTLYLQMNSLRAEDTAVYYCARGERYGSYWGQGTLVTVSSASTKGPSVFPLAPSSKSTSGGTAALGCLVKDYFPEPVTVSWNSGALTSGVHTFPAVLQSSGLYSLSSVVTVPSSSLGTQTYICNVNHKPSNTKVDKKV[skipping human IgG1 Fc]GGGGSGGGGSDTGRPFVEPYSEIPEIIHMTEGRELVIPCRVTSPNITVTLKKFPLDTLIPDGKRIIWDSRKGFIISNATYKEIGLLTCEATVNGHLYKTNYLTHRQTN
light: DIQMTQSPSSLSASVGDRVTITCKASDHINNWLAWYQQKPGKAPKLLISGATSLETGVPSRFSGSGSGTDYTLTISSLQPEDFATYYCQQYWSTPFTFGSGTKLEIKRTVAAPSVFIFPPSDEQLKSGTASVVCLLNNFYPREAKVQWKVDNALQSGNSQESVTEQDSKDSTYSLSSTLTLSKADYEKHKVYACEVTHQGLSSPVTKSFNRGEC
B4: FC-D2 (Fc fusion)
chain: [skipping human IgG1 Fc]GGGGSGGGGSDTGRPFVEMYSEIPEIIHMTEGRELVIPCRVTSPNITVTLKKFPLDTLIPDGKRIIWDSRKGFIISNATYKEIGLLTCEATVNGHLYKTNYLTHRQTNTI
notes: Control in the VEGF ELISA
B5: anti-IL-17/VEGF bifunctional fusion protein 17V02 (other)
heavy: DTGRPFVEMYSEIPEIIHMTEGRELVIPCRVTSPNITVTLKKFPLDTLIPDGKRIIWDSRKGFIISNATYKEIGLLTCEATVNGHLYKTNYLTHRQTNGGGGSGGGGSGGGGSGGGGSEVQLVESGGGLVQPGGSLRLSCAASGFTFSSFDMSWGRQAPGKRLEWVAFMSSGGSTYYPDSVKGRFTISRDNSKNTLYLQMNSLRAEDTAVYYCARGERYGSYWGQGTLVTVSS[skipping human IgG1 constant region]
light: DIQMTQSPSSLSASVGDRVTITCKASDHINNWLAWYQQKPGKAPKLLISGATSLETGVPSRFSGSGSGTDYTLTISSLQPEDFATYYCQQYWSTPFTFGSGTKLEIKRTVAAPSVFIFPPSDEQLKSGTASVVCLLNNFYPREAKVQWKVDNALQSGNSQESVTEQDSKDSTYSLSSTLTLSKADYEKHKVYACEVTHQGLSSPVTKSFNRGEC
B6: anti-IL-17/VEGF bifunctional fusion protein 17V03 (other)
heavy: EVQLVESGGGLVQPGGSLRLSCAASGFTFSSFDMSWGRQAPGKRLEWVAFMSSGGSTYYPDSVKGRFTISRDNSKNTLYLQMNSLRAEDTAVYYCARGERYGSYWGQGTLVTVSS[skipping human IgG1 constant region]
light: DIQMTQSPSSLSASVGDRVTITCKASDHINNWLAWYQQKPGKAPKLLISGATSLETGVPSRFSGSGSGTDYTLTISSLQPEDFATYYCQQYWSTPFTFGSGTKLEIKRTVAAPSVFIFPPSDEQLKSGTASVVCLLNNFYPREAKVQWKVDNALQSGNSQESVTEQDSKDSTYSLSSTLTLSKADYEKHKVYACEVTHQGLSSPVTKSFNRGECGGGGSGGGGSDTGRPFVEMYSEIPEIIHMTEGRELVIPCRVTSPNITVTLKKFPLDTLIPDGKRIIWDSRKGFIISNATYKEIGLLTCEATVNGHLYKTNYLTHRQTN
B7: anti-IL-17/VEGF bifunctional fusion protein 17V04 (other)
heavy: EVQLVESGGGLVQPGGSLRLSCAASGFTFSSFDMSWGRQAPGKRLEWVAFMSSGGSTYYPDSVKGRFTISRDNSKNTLYLQMNSLRAEDTAVYYCARGERYGSYWGQGTLVTVSS[skipping human IgG1 constant region]
light: DTGRPFVEMYSEIPEIIHMTEGRELVIPCRVTSPNITVTLKKFPLDTLIPDGKRIIWDSRKGFIISNATYKEIGLLTCEATVNGHLYKTNYLTHRQTNGGGGSGGGGSGGGGSGGGGSDIQMTQSPSSLSASVGDRVTITCKASDHINNWLAWYQQKPGKAPKLLISGATSLETGVPSRFSGSGSGTDYTLTISSLQPEDFATYYCQQYWSTPFTFGSGTKLEIKRTVAAPSVFIFPPSDEQLKSGTASVVCLLNNFYPREAKVQWKVDNALQSGNSQESVTEQDSKDSTYSLSSTLTLSKADYEKHKVYACEVTHQGLSSPVTKSFNRGEC

Tests used:
VEGF165 [1] = molecular target: T1, VEGF165; assay: ELISA, VEGF coated on the plate
IL-17A protein [2] = molecular target: T2, IL-17A protein; assay: ELISA, IL-17A coated on the plate
IL-17A protein [3] = molecular target: T2, IL-17A protein; assay: SPR, Biacore 8K, fusion protein captured on Protein A, IL-17A as analyte
VEGF165 [4] = molecular target: T1, VEGF165; assay: SPR, Biacore 8K, fusion protein captured on Protein A, VEGF165 as analyte
IL-17A protein [5] = molecular target: T2, IL-17A protein; assay: cell-based or functional assay

| Binder | EC50 (VEGF165 [1]) [nM] | EC50 (IL-17A protein [2]) [nM] | Kd (IL-17A protein [3]) [nM] | koff (IL-17A protein [3]) [s⁻¹] | kon (IL-17A protein [3]) [M⁻¹ s⁻¹] | Kd (VEGF165 [4]) [nM] | koff (VEGF165 [4]) [s⁻¹] | kon (VEGF165 [4]) [M⁻¹ s⁻¹] | IC50 of blocking IL-17A-induced IL-6 secretion from HeLa cells (IL-17A protein [5]) [nM] |
| --- | --- | --- | --- | --- | --- | --- | --- | --- | --- |
| B1 | 0.379 | 0.052 | 0.0185 | 4.72e-05 | 2.55e+06 | 0.0193 | 0.000786 | 4.08e+07 |  |
| B2 |  |  | 0.0184 | 5e-05 | 2.72e+06 | 0.011 | 0.000432 | 3.94e+07 | 0.726 |
| B3 |  |  | 0.0225 | 5.13e-05 | 2.28e+06 | 0.0153 | 0.000582 | 3.79e+07 | 0.778 |
| B4 | 0.397 |  |  |  |  |  |  |  |  |
| B5 | 0.327 | 0.062 |  |  |  |  |  |  |  |
| B6 | 0.326 | 0.041 |  |  |  |  |  |  |  |
| B7 | 0.371 | 0.105 |  |  |  |  |  |  |  |
